Test results from the RNAGym collection of RNA variant scans (doi:10.7554/elife.90254).
The source gives no read counts; variants with many changes may rest on few reads.

B1: OR4K15 (parent)
chain: GUUAACGGUCAUAGGCCAUGGAAACUAGGAGCACCAUUUCGCUGCCAGUGAAGAAAUGAACAAAGAAAAUCUGGGCCAGGCAGGCAUCAAAAGAAAUAGUCUUGCGCUCAACCAGAAAGUCUGUAAUCAUUUUAAGGGUA

Variants of: B1
Assay: self-cleavage, relative activity (ratio to wild type); higher = more cleavage; in vitro, sequencing; the parent is a self-cleaving ribozyme

Variant	self-cleavage
A4G A59G A78G	0.67
U3C A22G U130C	1.23
U3C A24G U49C	1.42
U3C U37C A54G A69G	1.37
U3C U72A U103C U127C U132A	0.04
U3C A60G A89G	1.3
U3C A89C U130C U132C	1.01
U3C A66G A78U U133C	0.34
U3A A86U U87C U102C	0.97
U3C A22G U38C A55G A59U A117G	2.84
A4G A47U A91G U132C	0.47
U3C A64G A140G	1.1
U3C A56G U127A	0.93
A4G A33G A52G U132C	0.71
U3C A52U A62G U108C A111U U127A	0
A4G A89U U120C	0.59
U3C A60G A111G A118G U122C A135G	0
A4G A56G A69G A89G U102C A118G	0.89
U3C A47G A78G	0.23
U2G U39A A51G A55G A126G	0.52
U3C A11G A36C	1.64
U3C A18G U131C A135G	0.61
A4G A134G A140G	1.06
U3C A96G U108C U131C	0.01

Variant	self-cleavage
U3C A22G U122C U131C	0.75
U3C A89G A90G U131C	0.84
A4G C16U A67G U122C	1.6
U3G U43C A86G C101U	0.14
A4C U38C U100C	1.52
A4G A11G U19C A66G U122A	0.63
A4G A24G A94G U124C	0.81
A4G C16U A18G	1.31
U3C A111G A117G	0.02
U3C C42A A52G A126G	0.33
U3A C16U U26C U108C U131C	0.02
A4G A11U A24G A30G G44A A117G	1.6
U3A A64G A114U	0.21
U3C A22G U49C U70C	0.9
U3C A114G A135G	0.44
U3A A63G A86G U87C A110G A135U	0.06
U3C A67G A95G	1.39
U3C A47U A52U A62G	0.67
U3C A24G A86G U130C	0.46
A4G A64G A86G U124C U130C	0.27
U3C A27U A66G U100A	0.19
A4G A69G A135U	1.49
A4G A23G A69G	1.1
U3C A68G A110G A118G U130C	0.06

Variant	self-cleavage
U3C A51G A54G	0.93
A4G A52U A92C	1.23
U3C A63G G73A A96G	0.14
U3C A55U A59C A89G U100C A114U	0.05
U3C U70C A92G U122C	0.1
U3A U38C A63G	0.94
U3C A36G U132C	1.64
A4G A18G U139A	1.13
A4G A69G A117G U131C	0.54
A4G A24G A95G A117U	0
U3C A13U C77U U87C U132C	1.29
U3C A51U A63G U133C A140G	1.15
A4G A67G A92G A118G	0.61
A4G A86G A94G	1
U3C A68G A92G U108A U130C U132C	0
U3C A59U A67G	1.47
A4G A22G U72A A86U A116G	0.18
A4G A33C A51G U102C	0.95
U3C A89G A110G U122C	0.03
A4G A36G A59G A68G U133A	0.58
A4G A82U U87A	0.25
U3C A23G A33U A68G U100C	1.4
A4G A52C A60G U103C U130C	0.6
A4G A33U U39C A89G A140C	1.67

Variant	self-cleavage
U3C A5G A22U A27G A52G A110C	0.4
U3C A22U A78G A111G	0.03
U3A A47U A67G	1.59
A4G A96G U139A	1.18
U3C A13G A23G U43C A52G A67G	1.18
U3C U57C A62G U70C A92G A114G	0.05
U3C U49C U57A A98G U131C	0.24
A4G A13G A94G A96G U120G A126G	1.69
U3C A11G G119A	0.28
U3C A62G A78U U102C	1.48
U2G U103C U127C A129G	0.12
A4G A22G U39C U102C	0.96
U3C A64C A94G U131C	0.56
A4G C61G C85G A134U	0.92
U3C A22U A90G A110G	0.06
A4G A5G U37C U38A	1.03
A4G A67G U72C U130C	0.16
A4G A82U C85U	0.33
U3G U9A C25U A63U	0.65
A4G A5G A23U A89G U103C U120C	0.73
A4G A56G A64U A92G	0.42
U3C U9C A51G U108C	0.06
U3C G50U A110U	0.6
A4G A11G U57C A62G	1.03

Variant	self-cleavage
A4G A55C U130C	0.23
A4G A66G U70C A92G	0.69
U3C U38C A90G U130C	0.23
A4G A27C A56G G73U U131C	0.18
U3G U70A A91G	1.2
U3C U37C U43C	1.42
A4G A5U U43C	1.63
A4G C85G A135G	1.34
U3C A55G A64G	0.9
A4G A24G A30G	1.7
A4G A51G A62G A68G	1.4
U3G A11G A82G G83C A86G A116G	0.06
A4G G29A A67G	1.55
U2G U19C A64G A114U C128U	0.09
A4G A11G A82G U108G A140G	0.03
U3A U103C U108A	0.02
A4G A60G A125G	0.45
A4G A90G U122A	0.28
A4G A66G U108C A116G	0.03
U3C A30G G79A	0.17
A4G A47U A56G U130C A140G	1.49
A4G A5G A52U A117G	0.31
U3C A22U A30G A33G	1.44
U3A U39C A64U A96G	0.56

Variant	self-cleavage
U3C G53A A59G A114U	0.05
A4G A11G A24U A63G	0.97
U3C G14A A30G A59U A62G	0
U3C U100C G123A	1.51
U3C A18U A110U U130C	0.47
A4G A52G U87C A95G	1.42
U3C A30G U37C A90G	1.34
A4G A18U U87C U100C A129G	0.95
U3C G48C U102C U103C A117G A129G	0.08
U3C A59G U103C	0.64
U3C A86U A96G A126G	1.6
A4G A55C A69G U102C U139A	2.67
U3C U43C A54G	1.25
A4G A59G A66G C101U U108C	0.06
U3C U37C U132C	1.35
U3C A59G A60G A62G A126G	0.85
U2G U37C A51G	0.86
A4G C45U A78G A92G A96G	0.04
A4G A22G A23G U37C A59G A92G A114U	0.03
U3G A66G U132C	1.03
A4G A95G U130C	1.56
U3C A24G U70C A98G	0.14
A4G C25A A111G	0.11
A4G A11G A23G	1.21

Variant	self-cleavage
U3A C112U U127C	0.01
U3A A36U U124A	1.12
U3A A4G U37C	0.77
U3C A33G A51G A63U U87C A98G	1.16
U3C U37C U39C	1.37
U3C A63G A95G	1.9
A4G A68G A96U	1.24
U3C A51U A82G A111U	0.06
U3C A52G A92G	0.75
U3A U12C G53A A56G A82G	0.99
A4G A11U U49C U72C U130C	0.16
U3C A60C A66G A116G	0.54
U3C U39C A63U A67G A86G U97A	1.65
U3C U39C A64G A91U	0.96
A4G C34U A66G A78U	0.37
U3C U9C G29U A94G	1.55
A4G A60G C88G G93U	0.98
U3C A54G U70C	0.58
U3C G104A A126G	0.06
U3A U38C C61U C105U A110C U122C	0.02
A4G A69G A118G U122C	1.1
U3A A64U A90G A94G	0.05
A4G A24G A54G A82G U87C A110C	0.17
